Laboratory results from paper PMC9911399, “Two distinct binding modes provide the RNA-binding protein RbFox with extraordinary sequence specificity”.
Positions count from the first letter of the chain named. This is one part of the list.

T1: RBFOX1 RRM (Homo sapiens, UniProt Q9NWB1 109-208)
T1 sequence: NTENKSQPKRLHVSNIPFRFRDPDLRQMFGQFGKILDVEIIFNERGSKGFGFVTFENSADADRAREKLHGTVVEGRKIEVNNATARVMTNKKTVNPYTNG

B1: AAACCCG (DNA:RNA)
RNA: GGGAGACCGGAAUUCAGAUUGUCCAAACCCGUUAAAUCCCGUCGUAGCCACCA
DNA 1: CAATCTGAATTCCGGTCTCCC
DNA 2: TGGTGGCTACGACGGGATT
B2: ACGGUGC (DNA:RNA)
RNA: B1 RNA with A26C, A27G, C28G, C29U, C30G, G31C
DNA 1: CAATCTGAATTCCGGTCTCCC
DNA 2: TGGTGGCTACGACGGGATT
B3: GUUCACG (DNA:RNA)
RNA: B1 RNA with A25G, A26U, A27U, C29A
DNA 1: CAATCTGAATTCCGGTCTCCC
DNA 2: TGGTGGCTACGACGGGATT
B4: GCGACUG (DNA:RNA)
RNA: B1 RNA with A25G, A26C, A27G, C28A, C30U
DNA 1: CAATCTGAATTCCGGTCTCCC
DNA 2: TGGTGGCTACGACGGGATT
B5: CUUCCAU (DNA:RNA)
RNA: B1 RNA with A25C, A26U, A27U, C30A, G31U
DNA 1: CAATCTGAATTCCGGTCTCCC
DNA 2: TGGTGGCTACGACGGGATT
B6: GAUGUUU (DNA:RNA)
RNA: B1 RNA with A25G, A27U, C28G, C29U, C30U, G31U
DNA 1: CAATCTGAATTCCGGTCTCCC
DNA 2: TGGTGGCTACGACGGGATT
B7: CCGGGGA (DNA:RNA)
RNA: GGGAGACCGGAAUUCAGAUUGUCCCCGGGGAUUAAAUCCCGUCGUAGCCACCA
DNA 1: CAATCTGAATTCCGGTCTCCC
DNA 2: TGGTGGCTACGACGGGATT
B8: GCGGCGU (DNA:RNA)
RNA: B7 RNA with C25G, G29C, A31U
DNA 1: CAATCTGAATTCCGGTCTCCC
DNA 2: TGGTGGCTACGACGGGATT
B9: UACAACU (DNA:RNA)
RNA: B1 RNA with A25U, A27C, C28A, C29A, G31U
DNA 1: CAATCTGAATTCCGGTCTCCC
DNA 2: TGGTGGCTACGACGGGATT
B10: CUGAGAC (DNA:RNA)
RNA: B7 RNA with C26U, G28A, G30A, A31C
DNA 1: CAATCTGAATTCCGGTCTCCC
DNA 2: TGGTGGCTACGACGGGATT
B11: CGAUCUA (DNA:RNA)
RNA: B1 RNA with A25C, A26G, C28U, C30U, G31A
DNA 1: CAATCTGAATTCCGGTCTCCC
DNA 2: TGGTGGCTACGACGGGATT
B12: AAUCUGA (DNA:RNA)
RNA: B1 RNA with A27U, C29U, C30G, G31A
DNA 1: CAATCTGAATTCCGGTCTCCC
DNA 2: TGGTGGCTACGACGGGATT
B13: CCCGGGU (DNA:RNA)
RNA: B7 RNA with G27C, A31U
DNA 1: CAATCTGAATTCCGGTCTCCC
DNA 2: TGGTGGCTACGACGGGATT
B14: ACUGUAA (DNA:RNA)
RNA: B7 RNA with C25A, G27U, G29U, G30A
DNA 1: CAATCTGAATTCCGGTCTCCC
DNA 2: TGGTGGCTACGACGGGATT
B15: GUAGCUC (DNA:RNA)
RNA: B1 RNA with A25G, A26U, C28G, C30U, G31C
DNA 1: CAATCTGAATTCCGGTCTCCC
DNA 2: TGGTGGCTACGACGGGATT
B16: GUAAACC (DNA:RNA)
RNA: B1 RNA with A25G, A26U, C28A, C29A, G31C
DNA 1: CAATCTGAATTCCGGTCTCCC
DNA 2: TGGTGGCTACGACGGGATT
B17: CUUCAAC (DNA:RNA)
RNA: B1 RNA with A25C, A26U, A27U, C29A, C30A, G31C
DNA 1: CAATCTGAATTCCGGTCTCCC
DNA 2: TGGTGGCTACGACGGGATT
B18: GCUGCAC (DNA:RNA)
RNA: B7 RNA with C25G, G27U, G29C, G30A, A31C
DNA 1: CAATCTGAATTCCGGTCTCCC
DNA 2: TGGTGGCTACGACGGGATT
B19: UCAAGUU (DNA:RNA)
RNA: B7 RNA with C25U, G27A, G28A, G30U, A31U
DNA 1: CAATCTGAATTCCGGTCTCCC
DNA 2: TGGTGGCTACGACGGGATT
B20: CUAGGCU (DNA:RNA)
RNA: B7 RNA with C26U, G27A, G30C, A31U
DNA 1: CAATCTGAATTCCGGTCTCCC
DNA 2: TGGTGGCTACGACGGGATT

Each binder was assayed against T1, RBFOX1 RRM (assay: EMSA; HiTS-Eq, 1 nM pool, 10 min; buffer printed only for the single-RNA assays: 10 mM Tris pH 7.5, 150 mM NaCl, 3.4 mM EDTA, 0.001% NP-40, 30 C). Conditions: tags: His6 N-terminal (pET28a); label: 5' 32P.
Outline: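 Purified RbFox RRM, wild type or mutant, was incubated for 10 min in 50 µL with 1 nM of a 5′-radiolabelled RNA pool carrying 7 randomized nucleotides, whose flanks were annealed to DNA oligonucleotides, over a series of increasing protein concentrations. Unbound RNA was resolved on 8% native PAGE, cut out, reverse-transcribed, barcoded by PCR and sequenced on an Illumina HiSeq 2500. Relative association constants were derived from changes in read counts for each RNA species versus the control reaction and normalised to the cognate motif.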

Binder | binding signal
B1 | 0.000686 KA relative to UGCAUGU
B2 | 0.0168 KA relative to UGCAUGU
B3 | 0.0115 KA relative to UGCAUGU
B4 | 0.0216 KA relative to UGCAUGU
B5 | 0.00161 KA relative to UGCAUGU
B6 | 0.0193 KA relative to UGCAUGU
B7 | 0.0059 KA relative to UGCAUGU
B8 | 0.0221 KA relative to UGCAUGU
B9 | 0.00104 KA relative to UGCAUGU
B10 | 0.0109 KA relative to UGCAUGU
B11 | 0.00481 KA relative to UGCAUGU
B12 | 0.014 KA relative to UGCAUGU
B13 | 0.00573 KA relative to UGCAUGU
B14 | 0.00133 KA relative to UGCAUGU
B15 | 0.0123 KA relative to UGCAUGU
B16 | 0.00277 KA relative to UGCAUGU
B17 | 0.00234 KA relative to UGCAUGU
B18 | 0.0251 KA relative to UGCAUGU
B19 | 0.00624 KA relative to UGCAUGU
B20 | 0.0118 KA relative to UGCAUGU
